Data as given in the RNAGym collection of RNA variant scans (doi:10.1073/pnas.2313332121).
This sample is rich in variants without activity.

B1: TPR 5TU (parent)
chain: GGAUCUUCUCGAUCUAACAAAAAAGACAAAUCUGCCACAAAGCUUGAGAGCAUCUUCGGAUGCAGAGGCGGCAGCCUUCGGUGGCGCGAUAGCGCCAACGUUCUCAACUAUGACACGCAAAACGCGUGCUCCGUUGAAUGGAGUUUAUCAUG

Variants of: B1
Assay: polymerase ribozyme fitness, log enrichment relative to wild type (log ratio); higher = more active; in vitro selection for triplet polymerase activity
Summary of the method: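 To select mutant libraries of each subunit of a heterodimeric triplet polymerase ribozyme, built by PCR and transcribed, each was annealed with a biotinylated primer, partner subunit and triplets, then incubated frozen at −7 °C. Extended constructs were gel-excised, captured on streptavidin beads and amplified by RT-PCR, in one round carried out in triplicate. Illumina sequencing of input and output libraries kept genotypes with ≥10 input reads and ≥1 read per output. Fitness is the base-2 logarithm of genotype enrichment relative to wild-type enrichment, from inverse-variance-weighted replicate averages.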

| Variant | polymerase ribozyme fitness (log ratio) |
| --- | --- |
| A30C C85U C96G G124C G143U | ≤ -4.2 |
| A30C C95U | -4.11 |
| A30C C96A U135A A137U | ≤ -4.2 |
| A30C G48A | ≤ -4.2 |
| A30C G48C A66G C75U A121C | ≤ -4.2 |
| A30C G50C U53A C63U A64G U77C U78C G141A | ≤ -4.2 |
| A30C G59C A60C C93A C99U C114A | ≤ -4.2 |
| A30C G74A G81C C96A | ≤ -4.2 |
| A30C G86A | ≤ -4.2 |
| A30C U44A G86A C95A | ≤ -4.2 |
| A30C U44G A47C U61G A97U | ≤ -4.2 |
| A30C U45A A52G G92A C114U G141C | ≤ -4.2 |
| A30C U53A C54A G83C A106C U144G | ≤ -4.2 |
| A30C U56A C75G C96A | ≤ -4.2 |
| A30G A39C U55G U82C G136U | ≤ -4.2 |
| A30G A39U C63U A73G C96U C125U | ≤ -4.2 |
| A30G A40G C54A C85U G117C | ≤ -4.2 |
| A30G A40G U45G C79G A89C G94U U145A | ≤ -4.2 |
| A30G A41U U135A A137U | ≤ -4.2 |
| A30G A47G A49C U102G C123A G136C | ≤ -4.2 |
| A30G A49C U55A C103U A138C U144A | ≤ -4.2 |

| Variant | polymerase ribozyme fitness (log ratio) |
| --- | --- |
| A30G A52C C85A | ≤ -4.2 |
| A30G A52C G84U A106U | ≤ -4.2 |
| A30G A60C C93U U102G G128U | ≤ -4.2 |
| A30G A73U C95G G136C | ≤ -4.2 |
| A30G C35U G65U G94U U135C U144G | ≤ -4.2 |
| A30G C35U U56G A66G U82G C99U A119U G126A A142C | ≤ -4.2 |
| A30G C36U G80U A89G G124U | ≤ -4.2 |
| A30G C38A U77A G84A G86A C108A G143A | ≤ -4.2 |
| A30G C38U A73U U78G C87G C105G | ≤ -4.2 |
| A30G C43A G83A C96G | ≤ -4.2 |
| A30G C51G C95G A97U G128A | ≤ -4.2 |
| A30G C51U G58A G86U | ≤ -4.2 |
| A30G C57A | -2.9 |
| A30G C57U C63U G68C C95U A120C C125G | ≤ -4.2 |
| A30G C75A G94U A137C G143U A150U | ≤ -4.2 |
| A30G C76U | -3.9 |
| A30G C76U C96U | ≤ -4.2 |
| A30G C87G | ≤ -4.2 |
| A30G C87G U101C A122G | ≤ -4.2 |
| A30G C95U G100A | ≤ -4.2 |
| A30G C108U U109A | ≤ -4.2 |

| Variant | polymerase ribozyme fitness (log ratio) |
| --- | --- |
| A30G C116U U148C | ≤ -4.2 |
| A30G G34C A39C A66U G80A U109G A121U A150C | ≤ -4.2 |
| A30G G34U A66U U82G U102G U134A | ≤ -4.2 |
| A30G G42U A113U C114U C125U | ≤ -4.2 |
| A30G G42U C96U C118G U130G | ≤ -4.2 |
| A30G G48A C54U C85U | ≤ -4.2 |
| A30G G50C C51A G84A C87G G100U A121G | ≤ -4.2 |
| A30G G50C C95U | ≤ -4.2 |
| A30G G50C G71U U82A G84U G112A C123G | ≤ -4.2 |
| A30G G50U C75A U78C G94C | ≤ -4.2 |
| A30G G58A A98U U135C | ≤ -4.2 |
| A30G G58U C118U | -3.95 |
| A30G G70A A91U A122G U145G | ≤ -4.2 |
| A30G G70A C105U A115C U148A | ≤ -4.2 |
| A30G G71A C85G G141C | ≤ -4.2 |
| A30G G83A A91C C99G A147C | ≤ -4.2 |
| A30G G83A A119C | ≤ -4.2 |
| A30G G141C | -3.51 |
| A30G U33A U55A A91C C132U A142U | ≤ -4.2 |
| A30G U44A U53A U56A A89U G94C C105U C123U G136U | ≤ -4.2 |
| A30G U44A U61A C95U U102C C103A U109G G136U | ≤ -4.2 |

| Variant | polymerase ribozyme fitness (log ratio) |
| --- | --- |
| A30G U44C G88C C105A | ≤ -4.2 |
| A30G U45A G68U U77C C79G C105G | ≤ -4.2 |
| A30G U56A C85G C132U | ≤ -4.2 |
| A30G U56A G80U C96A C105U G143U | ≤ -4.2 |
| A30U A37C A52C A60G G84A A91C C116A C123G U134A | ≤ -4.2 |
| A30U A37C G50C A91G A150G | ≤ -4.2 |
| A30U A40C A60C G83C C95A | ≤ -4.2 |
| A30U A40U U55A C72U G84U C87A A89U G117U C125G | ≤ -4.2 |
| A30U A41C C96G G100U | ≤ -4.2 |
| A30U A41U A52G U61A C85U A97U G126A | ≤ -4.2 |
| A30U A47C G50A C54G G92C C123G | ≤ -4.2 |
| A30U A52G G58A G70U C79U G83A C93U | ≤ -4.2 |
| A30U A52U C93A | ≤ -4.2 |
| A30U A66C G68A C87A | ≤ -4.2 |
| A30U A66G A115U G143A | ≤ -4.2 |
| A30U A91U | ≤ -4.2 |
| A30U A122U | -2.62 |
| A30U C32G G34U G81A C93A G136C | ≤ -4.2 |
| A30U C32G U44A G62C | ≤ -4.2 |
| A30U C32G U55G G74A A89G C93A G133U A142C | ≤ -4.2 |
